# Structures can show the parent of a compound that is named as a salt. In all, about 1,300 compounds went through this assay and about 40 (3%) showed activity. The list shows a part of the results.
# Tested on: Plasmodium falciparum NF54/iGP1_RE9H ulg8 stage V gametocytes
# Test: gametocyte viability (luciferase signal relative to DMSO control) (% of DMSO control); higher = less gametocytocidal activity, active = 50 or less
# Conditions: exposure time: 72 h
# Method in brief: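 In 96-well plates holding nanolitre spots of compound (10 mM DMSO stocks), NF54/iGP1_RE9Hulg8 stage V gametocytes from day 12 were added at ~2.5% gametocytemia and 3% hematocrit in medium with 0.5% Albumax II, giving single wells at 10 µM or 1 µM. Incubation lasted 72 h at 37 °C. Each 90 µl sample then received 10 µl D-luciferin (30 mg/ml) before luminescence reading on an IVIS Lumina II, and viability was normalized to the mean of DMSO vehicle wells on the same plate.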
Structure (SMILES),gametocyte viability (concentration: 1 µM),gametocyte viability (concentration: 10 µM)
C[C@@H]1C[C@H]2[C@@H]3C[C@H](F)C4=CC(=O)C=C[C@]4(C)[C@@]3(F)[C@@H](O)C[C@]2(C)[C@@]1(O)C(=O)CO [Flumethasone],inactive: 86.5,inactive: 90.2
O=C(O)c1cn(-c2ccc(F)cc2)c2cc(N3CCNCC3)c(F)cc2c1=O [Sarafloxacin],inactive: 89.8,inactive: 93.3
CN1CCN(C2=Nc3ccccc3Oc3ccc(Cl)cc32)CC1 [Loxapine succinate],inactive: 94,inactive: 87.1
N=C(NCCCCCCNC(=N)NC(=N)Nc1ccc(Cl)cc1)NC(=N)Nc1ccc(Cl)cc1 [Chlorhexidine],inactive: 92.1,active: 1.08
NCc1ccccc1CC(=O)N[C@@H]1C(=O)N2C(C(=O)O)=C(CSc3nnnn3CC(=O)O)CS[C@H]12 [Ceforanide],inactive: 93.3,inactive: 93.4
C[N+]1(C)CCC(OC(=O)C(O)(c2ccccc2)C2CCCC2)C1 (configuration not stated) [Glycopyrrolate],inactive: 83,inactive: 87.6
N#Cc1ccc(C(c2ccc(C#N)cc2)n2cncn2)cc1 [Letrozole],inactive: 89.7,inactive: 86.5
Clc1ccc(CCC(Cn2ccnc2)Sc2c(Cl)cccc2Cl)cc1 (configuration not stated) [Butoconazole nitrate],inactive: 87.9,inactive: 64
CC1c2cccc(O)c2C(O)=C2C(=O)C3(O)C(O)=C(C(N)=O)C(=O)C(N(C)C)C3C(O)C21 (configuration not stated) [Doxycycline hydrochloride],inactive: 94.5,inactive: 92.2
CN(C)CCCN1c2ccccc2Sc2ccc(C(F)(F)F)cc21 [Triflupromazine hydrochloride],inactive: 83.7,inactive: 81.5
CC(=O)Oc1ccccc1C(=O)Nc1ncc([N+](=O)[O-])s1 [Nitazoxanide],inactive: 83.6,inactive: 60.5
CC(N/C(=N\C#N)Nc1ccncc1)C(C)(C)C (configuration not stated) [Pinacidil],inactive: 93.7,inactive: 68.9
CCCCC(O)c1ccccc1 (configuration not stated) [Fenipentol],inactive: 82,inactive: 82.9
CCN(CC)CCOC(=O)C1(C2CCCCC2)CCCCC1 [Dicyclomine hydrochloride],inactive: 84.2,inactive: 80
O=C1c2c(O)cccc2Cc2cccc(O)c21 [Anthralin],inactive: 89.3,inactive: 86.9
COc1cc(C(=O)OCCCN2CCCN(CCCOC(=O)c3cc(OC)c(OC)c(OC)c3)CC2)cc(OC)c1OC [Dilazep dihydrochloride],inactive: 85.4,inactive: 94.7
